This is an account of results in a collection of fitness landscapes (doi:10.1126/science.1257360).

Some of the results follow.

The labels stand for the following.
B1: PhoQ; a variant is named by its letters at X, in order, P23837 (parent)
chain: MKKLLRLFFPLSLRVRFLLATAAVVLVLSLAYGMVALIGYSVSFDKTTFRLLRGESNLFYTLAKWENNKLHVELPENIDKQSPTMTLIYDENGQLLWAQRDVPWLMKMIQPDWLKSNGFHEIEADVNDTSLLLSGDHSIQQQLQEVREDDDDAEMTHSVAVNVYPATSRMPKLTIVVVDTIPVELKSSYMVWSWFIYVLSANLLLVIPLLWVAAWWSLRPIEALAKEVRELEEHNRELLNPATTRELTSLVRNLNRLLKSERERYDKYRTTLTDLTHSLKTPLXXLQXXLRSLRSEKMSVSDAEPVMLEQISRISQQIGYYLHRASMRGGTLLSRELHPVAPLLDNLTSALNKVYQRKGVNISLDISPEISFVGEQNDFVEVMGNVLDNACKYCLEFVEISARQTDEHLYIVVEDDGPGIPLSKREVIFDRGQRVDTLRPGQGVGLAVAREITEQYEGKIVAGESMLGGARMEVIFGRQHSAPKDE

Variants of B1 are the subject of the test. The experiment in a line: enrichment ratio after two sorts for PhoP signalling (ratio (wild type AVST 3.29)); higher = more functional. Particulars: with PhoP (E. coli).
Regarding SGVH, the enrichment ratio amounted to 10.5.
Take HYVC: the enrichment ratio is ≤ 0.25.
Then APDI, with ≤ 0.25.
The result for DQHL reads ≤ 0.25; that for VYWT, ≤ 0.25.
Then ICDW, with ≤ 0.25.
As to IWDP, the enrichment ratio was ≤ 0.25.
In the case of LEHN, the enrichment ratio is ≤ 0.25.
Take TIAI: the enrichment ratio turned out to be 11.7.
The result for IAVF reads ≤ 0.25; that for HMNN, ≤ 0.25; that for WGML, ≤ 0.25.
Then AWGL, with ≤ 0.25; and PMQT, with ≤ 0.25; and DKTR, with ≤ 0.25.
In the case of RDHD, the enrichment ratio was ≤ 0.25.
KVGG: the enrichment ratio is ≤ 0.25.
On to GMDK, for which the enrichment ratio was ≤ 0.25.
With TDFW, the enrichment ratio was ≤ 0.25.
As to HHFM, the enrichment ratio was ≤ 0.25.
In the case of FFLG, the enrichment ratio is ≤ 0.25.
As for PCHE, the enrichment ratio is ≤ 0.25.
Turning to NNKM, the enrichment ratio was determined as 6.75.
Consider ANVP, for which the enrichment ratio was ≤ 0.25.
EKMN: the enrichment ratio was ≤ 0.25.
The result for VAIT reads ≤ 0.25; that for VETK, ≤ 0.25; that for HGTD, ≤ 0.25.
Then FFTP, with ≤ 0.25.
Then CLFF, with ≤ 0.25; and IYPR, with ≤ 0.25; and GYSF, with ≤ 0.25.
Turning to MMAW, the enrichment ratio was ≤ 0.25.
GYPK: the enrichment ratio was ≤ 0.25.
As to MVHA, the enrichment ratio was ≤ 0.25.
The result for QGRK reads ≤ 0.25.
The result for HCCK reads ≤ 0.25.
Then EVLK, with ≤ 0.25; and NSLV, with 2.78.
Consider DMCK, for which the enrichment ratio is ≤ 0.25.
As for YHQV, the enrichment ratio is ≤ 0.25.
The result for ATFA reads ≤ 0.25; that for AIFE, ≤ 0.25; that for LSMC, ≤ 0.25.
The result for RAWP reads ≤ 0.25; that for LVAY, ≤ 0.25; that for GCRC, ≤ 0.25.
Then GNQR, with ≤ 0.25; and PWTP, with ≤ 0.25.
Regarding WNLC, the enrichment ratio was ≤ 0.25.
Then RHEA, with ≤ 0.25; and VVMI, with ≤ 0.25; and TLQM, with 15.4.
Consider KEVR, for which the enrichment ratio was ≤ 0.25.
The result for MNKR reads ≤ 0.25.
Then MCNH, with 0.253.
For the variant PCHN, the enrichment ratio is ≤ 0.25.
Take EYIN: the enrichment ratio was ≤ 0.25.
Consider SGQD, for which the enrichment ratio was ≤ 0.25.
Then PVKM, with ≤ 0.25; and FWVM, with ≤ 0.25; and KVRH, with ≤ 0.25.
The result for PSDP reads ≤ 0.25.
The result for GNKG reads ≤ 0.25; that for AAFS, ≤ 0.25; that for QFMG, ≤ 0.25.
As for NDIH, the enrichment ratio was ≤ 0.25.
With NFHQ, the enrichment ratio is ≤ 0.25.
The result for NGEK reads ≤ 0.25; that for KDMK, ≤ 0.25; that for SGGP, ≤ 0.25.
Then SPAN, with ≤ 0.25; and YLYA, with ≤ 0.25.
Then TACY, with 6.15; and PGMW, with ≤ 0.25; and WHTF, with ≤ 0.25.
Take QLWI: the enrichment ratio was ≤ 0.25.
Then NWTT, with ≤ 0.25.
Then NEFT, with ≤ 0.25; and DHWA, with ≤ 0.25; and WIHF, with ≤ 0.25.
Then GIHT, with ≤ 0.25; and ENKY, with ≤ 0.25; and GVCR, with 7.8.
For AYSF, the enrichment ratio is ≤ 0.25.
Consider PFNI, for which the enrichment ratio is ≤ 0.25.
Then KFFC, with ≤ 0.25; and THSQ, with 1.73; and YTPF, with ≤ 0.25.
The result for NIYM reads ≤ 0.25; that for CILL, ≤ 0.25.
As for SYQD, the enrichment ratio is ≤ 0.25.
Turning to SPTP, the enrichment ratio was ≤ 0.25.
Then PNVW, with ≤ 0.25.
Consider LQWF, for which the enrichment ratio is ≤ 0.25.
Consider IQCC, for which the enrichment ratio was ≤ 0.25.
In the case of DYYI, the enrichment ratio is ≤ 0.25.
The result for WINC reads ≤ 0.25; that for NRQQ, ≤ 0.25; that for QWFL, ≤ 0.25.
For SYKN, the enrichment ratio is ≤ 0.25.
The result for SSYV reads 1.11; that for PEFW, ≤ 0.25.
On to VWGH, for which the enrichment ratio was ≤ 0.25.
The result for YFRR reads 0.949; that for VNAE, ≤ 0.25; that for VIFK, ≤ 0.25.
Consider VRWN, for which the enrichment ratio was ≤ 0.25.
The result for IHGW reads ≤ 0.25; that for FTPR, ≤ 0.25.
For VSHP, the enrichment ratio was ≤ 0.25.
The result for ILNN reads ≤ 0.25; that for LDDA, ≤ 0.25.
Turning to RVGH, the enrichment ratio is ≤ 0.25.
The result for EGCR reads ≤ 0.25; that for FTRC, ≤ 0.25; that for VCNS, ≤ 0.25.
In the case of YSNM, the enrichment ratio was ≤ 0.25.
In the case of QWPI, the enrichment ratio is ≤ 0.25.
Then KVTC, with ≤ 0.25; and WPEI, with ≤ 0.25; and GMED, with ≤ 0.25.
The result for VHVV reads ≤ 0.25.
The result for LQDP reads ≤ 0.25; that for NWAA, ≤ 0.25; that for KDGH, ≤ 0.25.
Turning to PQKW, the enrichment ratio was ≤ 0.25.
The result for IKME reads ≤ 0.25; that for AEIY, 14.8.
Then DSHN, with ≤ 0.25; and HDAA, with ≤ 0.25; and KILK, with ≤ 0.25.
Then AHVM, with 1.65; and PRLQ, with ≤ 0.25.
As to YNNG, the enrichment ratio was ≤ 0.25.
Then LMPT, with ≤ 0.25.
Take TYMK: the enrichment ratio is ≤ 0.25.
Turning to INKF, the enrichment ratio was ≤ 0.25.
As for IWDM, the enrichment ratio is ≤ 0.25.
Regarding MQKV, the enrichment ratio was ≤ 0.25.
Then KDYC, with ≤ 0.25; and AQHE, with ≤ 0.25.
The result for DWID reads ≤ 0.25; that for NNPF, ≤ 0.25.
On to AMYM, for which the enrichment ratio is ≤ 0.25.
In the case of VVIT, the enrichment ratio is ≤ 0.25.
As to HGMM, the enrichment ratio was ≤ 0.25.
MIMK: the enrichment ratio was ≤ 0.25.
Then HPGI, with ≤ 0.25; and FEVA, with ≤ 0.25; and YMNQ, with ≤ 0.25.
For the variant NHFD, the enrichment ratio is ≤ 0.25.
As to HLRT, the enrichment ratio is ≤ 0.25.
